Among all 390,000 compounds or so, about 17,000 (4.4%) were called active. The shares of active, inactive and inconclusive entries below differ from those in the screen. The call rests on the fitted dose curve; in most records, active means well fitted inhibition curve with a large enough effect; inconclusive means small, poorly fitted or top-dose-only effect; inactive means no such curve, though single readings can be large or run the other way. Potencies beside an inconclusive call are fits to weak or partial responses and may not hold up.
What follows are compounds tested against Lysine-specific demethylase 4A (Homo sapiens) (UniProt O75164) (assay: qHTS Assay for Inhibitors of JMJD2A-Tudor Domain). Conditions: AlphaScreen JMJD2A-Tudor / H3K4me3 peptide binding; activity change, negative = inhibition: at 114 µM (top of the series).
Further: nearly all actives have a fitted effect of over 50% in size.
On the % scale 0 is the no-effect control and ±100 the full control effect; potency means the concentration at half of the fitted maximal effect; tags describe the fitted curve by direction and shape.

UniProt O75164, sequence (O75164 whole entry, looked up, the tested form may be a part): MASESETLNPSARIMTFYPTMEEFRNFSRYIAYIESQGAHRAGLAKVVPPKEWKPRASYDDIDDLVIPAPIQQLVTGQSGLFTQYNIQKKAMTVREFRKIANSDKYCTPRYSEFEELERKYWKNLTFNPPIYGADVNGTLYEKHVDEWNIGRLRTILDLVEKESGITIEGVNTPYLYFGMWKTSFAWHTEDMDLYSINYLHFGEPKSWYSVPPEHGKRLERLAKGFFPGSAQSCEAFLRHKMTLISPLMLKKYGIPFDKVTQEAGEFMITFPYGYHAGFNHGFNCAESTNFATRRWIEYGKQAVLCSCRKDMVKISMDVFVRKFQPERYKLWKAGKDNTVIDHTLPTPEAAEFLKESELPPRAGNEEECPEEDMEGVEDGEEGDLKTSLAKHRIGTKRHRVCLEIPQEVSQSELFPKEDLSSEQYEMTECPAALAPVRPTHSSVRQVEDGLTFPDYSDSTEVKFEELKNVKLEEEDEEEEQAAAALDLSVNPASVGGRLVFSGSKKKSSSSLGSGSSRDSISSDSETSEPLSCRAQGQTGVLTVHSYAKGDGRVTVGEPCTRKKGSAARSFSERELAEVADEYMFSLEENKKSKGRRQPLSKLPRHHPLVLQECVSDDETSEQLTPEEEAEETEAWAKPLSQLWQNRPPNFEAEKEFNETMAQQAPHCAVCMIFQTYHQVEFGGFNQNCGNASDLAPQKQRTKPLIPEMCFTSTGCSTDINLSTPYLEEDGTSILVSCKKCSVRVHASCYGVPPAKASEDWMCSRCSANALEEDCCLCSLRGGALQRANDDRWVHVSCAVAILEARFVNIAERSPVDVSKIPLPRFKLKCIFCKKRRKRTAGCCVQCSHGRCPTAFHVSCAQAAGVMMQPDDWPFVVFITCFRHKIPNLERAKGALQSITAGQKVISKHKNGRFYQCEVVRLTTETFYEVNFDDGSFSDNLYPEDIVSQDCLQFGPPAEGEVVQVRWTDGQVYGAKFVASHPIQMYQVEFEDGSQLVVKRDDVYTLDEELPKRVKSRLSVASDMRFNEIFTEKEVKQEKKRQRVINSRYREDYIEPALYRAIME

Potency, inconclusive:
CN1CCC(=NNC(=O)C(=O)Nc2ccccc2)CC1 100 µM [inhibitor, partial curve]
CCN(CC)CCN(C(=O)c1ccc2ccccc2c1)c1nc2ccc(F)cc2s1 50.1 µM [inhibitor, partial curve]
Cc1cnc(C(=O)OCC(=O)c2csc(N3CCCCC3)n2)cn1 100 µM [inhibitor, single point]
O=C(Cn1ncc2c([nH]c3ccccc32)c1=O)N1CCN(c2ccc(F)cc2)CC1 79.4 µM [inhibitor, partial curve]
O=C(c1ccc2c(=O)n(-c3ccccc3)c(=S)[nH]c2c1)N1CCCCC1 39.8 µM [inhibitor, single point]
CCc1ccc(NC2=CC(=O)CC(c3ccco3)C2)cc1 (configuration not stated) 44.7 µM [inhibitor, partial curve]
Cc1cccc(N(C)C(=O)CN(C)S(=O)(=O)c2ccc3[nH]c4c(c3c2)CCCC4)c1 22.4 µM [inhibitor, full curve]
CCC(C)(C)NC(=O)C(c1ccc(C)cc1)N(CCN1CCOCC1)C(=O)CNC(=O)c1cccs1 (configuration not stated) 17.8 µM [inhibitor, full curve]
CCn1c(=O)n(CC)c2cc(N3CCCC3)c(NC(=O)c3ccccc3OC)cc21 44.7 µM [inhibitor, partial curve]
O=C1c2ccccc2C(Nc2ccc3c(c2)OCCO3)N1c1ccccn1 (configuration not stated) 79.4 µM [inhibitor, partial curve]
CCN(c1ccc(NC(=O)COC(=O)CCc2cc(OC)c(OC)c(OC)c2)cc1)C(C)C 39.8 µM [inhibitor, partial curve]
CCc1ccc2nc(N(CCCN(C)C)C(=O)c3ccc(S(=O)(=O)N(C)C4CCCCC4)cc3)sc2c1 8.91 µM [inhibitor, full curve, poor fit]
O=C(NCc1ccccn1)NC12CC3CC(CC(C3)C1)C2 50.1 µM [inhibitor, partial curve]
CC1CCN(Cc2ccc(NC(=O)C3CCN(c4nnc(-n5cccc5)s4)CC3)cc2)CC1 50.1 µM [inhibitor, partial curve]
COc1ccc(N2CC(C(=O)Nc3nnc(SCC(=O)NCc4ccco4)s3)CC2=O)cc1 (configuration not stated) 31.6 µM [inhibitor, full curve]
O=C(CCc1nnc2ccc(NCc3ccccc3)nn12)NC1CCCC1 56.2 µM [inhibitor, partial curve]
COCCn1nnnc1C(c1cccs1)N1CCN2CCCC2C1 (configuration not stated) 14.1 µM [inhibitor, full curve]
COc1ccc(C2C(C(C)=O)=C(O)C(=O)N2CCO)c(OC)c1 (configuration not stated) 28.2 µM [inhibitor, full curve]
CC1(C)Cc2cccc(C(=O)NCc3ccco3)c2O1 11.2 µM [inhibitor, full curve, poor fit]
Cc1ccccc1OCC(O)Cn1c(NCc2ccco2)nc2c1c(=O)[nH]c(=O)n2C (configuration not stated) 56.2 µM [inhibitor, partial curve]
Cc1n[nH]c(=O)c2c(NC(=O)CSc3nnnn3-c3ccccc3)oc(C)c12 35.5 µM [inhibitor, partial curve]
Cc1nonc1C1CCCN1Cc1cn[nH]c1-c1ccc(-c2ccccc2)cc1 (configuration not stated) 31.6 µM [inhibitor, partial curve]
CCc1ccc(NC(=O)CSc2nccn2-c2cccc(C)c2C)cc1 28.2 µM [inhibitor, full curve]
CCn1c(=O)c(CCC(=O)N2CCN(c3ccccn3)CC2)c(C)c2c(C)nn(-c3ccccc3)c21 50.1 µM [inhibitor, partial curve]
COc1ccccc1-c1cn[nH]c1-c1ccc(OCc2ccccc2)cc1O 44.7 µM [inhibitor, partial curve]
COC(=O)c1sccc1NC(=O)CN(C)NS(=O)(=O)c1ccc(F)cc1 100 µM [inhibitor, partial curve]
Cc1ccc(C)c(Cn2c(=O)n(Cc3ccc4c(c3)OCO4)c(=O)c3oc4ccccc4c32)c1 50.1 µM [inhibitor, partial curve]
C(=N\Nc1nc2ccccc2[nH]1)/c1cccc2nccnc12 15.8 µM [inhibitor, full curve, poor fit]
COC(=O)/C(=C\C(=O)c1ccccc1)Nc1cccc(C(F)(F)F)c1 89.1 µM [inhibitor, partial curve, poor fit]
CN(C)CCC(=O)c1ccc2c(c1)OCO2 100 µM [inhibitor, single point]
COc1ccc(C2C=C(C34CC5CC(CC(C5)C3)C4)NC(=S)N2)cc1 (configuration not stated) 20 µM [inhibitor, partial curve]
O=C1OC(c2ccccc2)=N/C1=C\N1CCCCC1 56.2 µM [inhibitor, partial curve]

Potency, active:
CN(Cc1ccccc1)c1nc(-c2cccc([N+](=O)[O-])c2)nc2ccccc12 31.6 µM
COc1ccccc1-n1c(=O)c2c3c(sc2n2c(=S)[nH]nc12)CCC3 14.1 µM
CCOC(=O)c1sc(=S)[nH]c1C 14.1 µM
O=C(O)CCCCCN1C(=O)/C(=C/c2cn(-c3ccccc3)nc2-c2cccs2)SC1=S 31.6 µM
N#C/C(=C\c1cc(O)c(O)c(O)c1)C(N)=O 3.55 µM
O=C/C(=C\Nc1ccccn1)c1nc2ccccc2o1 39.8 µM
Cc1ccc(C)n1-c1c(C(=O)NCCCN2CCN(c3ccc(F)cc3)CC2)sc2ncccc12 50.1 µM
O=C(c1c(F)c(F)c(F)c(F)c1F)N1CCN(c2cccc(C(F)(F)F)c2)CC1 14.1 µM
Nc1ccc(C=C2C=Cc3ccccc32)cc1 35.5 µM
CCC(CO)Oc1cc(NCc2ccccc2)c2ncn(C3CCCC3)c2c1 (configuration not stated) 56.2 µM
c1ccc(-c2nnc(SCc3nc4ccccc4[nH]3)n2Cc2ccco2)cc1 31.6 µM
O/N=C\c1cccn1-c1ccc(Br)cc1 79.4 µM
CC(=O)Nc1ccc(S(=O)(=O)N2CCC(N3CCCCCC3)CC2)cc1 20 µM
Cc1cccc(Nc2nc(N)nc(CN3CCN(c4ccccc4F)CC3)n2)c1 44.7 µM

Potency, inactive:
O=C(CCC1CCCC1)Nc1ccccc1-c1ccccc1
COC(=O)c1c(N2C(=O)CC(Sc3ncccc3C(=O)O)C2=O)sc(C)c1C (configuration not stated)
O=C(NCC1CCCO1)c1cc2ccccc2oc1=O (configuration not stated)
CCS(=O)(=O)c1ccc2oc(Nc3ccccc3Br)nc2c1
S=c1[nH]nc(-c2ccc(Cl)cc2)n1/N=C/c1cccs1
Cc1cc(S(=O)(=O)NCc2ccccc2)ccc1OCC(=O)NCc1ccccn1
CCCOc1cccc(C(=O)NCCNC(=O)c2ccc(C)nc2)c1
COc1cccc(CNC(=O)C(NS(=O)(=O)c2ccc3c(c2)oc(=O)n3C)C(C)C)c1 (configuration not stated)
COc1ccc(S(=O)(=O)Nc2cccc(-c3ccc(N4CCCCCC4)nn3)c2)cc1
CC(=O)C1=C(O)C(=O)N(c2ccc(Br)cc2)C1c1ccc(Cl)cc1 (configuration not stated)
Cc1ccc(-n2nc(C(=O)Nc3ccc(Cl)cn3)c3c4ccccc4n(C)c3c2=O)cc1
COC(=O)c1ccc(CSc2nc3ccccc3c(=O)n2-c2ccccc2)o1
CCNC(=S)N1CCN=C1Nc1nc(C)cc(C)n1
CCOC(=O)c1cc(C)n(CC2CCC(C(=O)Nc3ccc(OCC)cc3)CC2)c1C (configuration not stated)
COCCCNC(=O)CC1Oc2ccccc2NC1=O (configuration not stated)
CN(CC(=O)Nc1ccccc1Cl)C(=O)COC(=O)CSc1ccc(F)cc1
O=C(Nc1cccnc1)c1ccc(NS(=O)(=O)c2cccc([N+](=O)[O-])c2)cc1
CC(/C=N/NC(=O)c1cc(-c2ccc3ccccc3c2)n[nH]1)=C\c1ccco1
COc1ccc(NC(=O)CSc2nc3ccncc3[nH]2)c(OC)c1
Cc1ccc(C2CC(=O)N(Cc3ccccc3)c3c2c(C)nn3-c2nc(C)cc(C)n2)cc1 (configuration not stated)
Cc1oc(-c2ccccc2)[n+]([O-])c1C
O=C(NP(=O)(N1CCCC1)N1CCCC1)C1=C(N2CCOCC2)/C(=C/c2cccc([N+](=O)[O-])c2)CC1
N#CC1=C(N)Oc2nc(-c3ccccc3)[nH]c2C1c1cccnc1 (configuration not stated)
CCOc1ccc(-c2nc(CSCC(=O)NC3CC3)c(C)o2)cc1
CCOc1ccc(Sc2cc(C(=O)NC(C)CC)c3ccccc3n2)cc1 (configuration not stated)
CCCCOc1ccc(C(=O)NCCc2sc(-c3cccc(F)c3)nc2C)cc1
CC(C)(C)c1csc(NC(=O)c2cccnc2)n1
Cc1cc2nc(-c3ccc(OCc4ccc(F)cc4)cc3)cc(C(F)(F)F)n2n1
Cc1ccccc1-c1nc(S(=O)(=O)c2ccccc2)c(N2CCCC2)o1

Activity change, negative = inhibition, inactive:
COc1cc(NC(=O)c2cccs2)c(OC)cc1NC(=O)CCC(=O)Nc1ccc2ncccc2c1 -8.27% [at 11.4 µM]
O=[N+]([O-])c1cccc(-c2ccc3nnc(SCc4cccnc4)n3n2)c1 -22.8% [at 11.4 µM]

Source: PubChem BioAssay AID504339 (National Center for Advancing Translational Sciences (NCATS), 2011)
